# Article PMC4336329 (PLoS ONE, 2015)
# Among all 310,000 compounds or so, about 14,000 (4.5%) showed an effect of 50% or more. The effect is printed as a negative number. The list shows a part of the results.
# Molecular target: human ether-à-go-go-related gene (hERG) potassium channel (human, UniProt Q12809)
# Test: primary screen, population patch clamp on CHO cells stably expressing hERG
# 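Also: peak tail current of the secondary pulse compared with the same well before compound.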
# Sequence of human ether-à-go-go-related gene (hERG) potassium channel (Q12809 whole entry, looked up): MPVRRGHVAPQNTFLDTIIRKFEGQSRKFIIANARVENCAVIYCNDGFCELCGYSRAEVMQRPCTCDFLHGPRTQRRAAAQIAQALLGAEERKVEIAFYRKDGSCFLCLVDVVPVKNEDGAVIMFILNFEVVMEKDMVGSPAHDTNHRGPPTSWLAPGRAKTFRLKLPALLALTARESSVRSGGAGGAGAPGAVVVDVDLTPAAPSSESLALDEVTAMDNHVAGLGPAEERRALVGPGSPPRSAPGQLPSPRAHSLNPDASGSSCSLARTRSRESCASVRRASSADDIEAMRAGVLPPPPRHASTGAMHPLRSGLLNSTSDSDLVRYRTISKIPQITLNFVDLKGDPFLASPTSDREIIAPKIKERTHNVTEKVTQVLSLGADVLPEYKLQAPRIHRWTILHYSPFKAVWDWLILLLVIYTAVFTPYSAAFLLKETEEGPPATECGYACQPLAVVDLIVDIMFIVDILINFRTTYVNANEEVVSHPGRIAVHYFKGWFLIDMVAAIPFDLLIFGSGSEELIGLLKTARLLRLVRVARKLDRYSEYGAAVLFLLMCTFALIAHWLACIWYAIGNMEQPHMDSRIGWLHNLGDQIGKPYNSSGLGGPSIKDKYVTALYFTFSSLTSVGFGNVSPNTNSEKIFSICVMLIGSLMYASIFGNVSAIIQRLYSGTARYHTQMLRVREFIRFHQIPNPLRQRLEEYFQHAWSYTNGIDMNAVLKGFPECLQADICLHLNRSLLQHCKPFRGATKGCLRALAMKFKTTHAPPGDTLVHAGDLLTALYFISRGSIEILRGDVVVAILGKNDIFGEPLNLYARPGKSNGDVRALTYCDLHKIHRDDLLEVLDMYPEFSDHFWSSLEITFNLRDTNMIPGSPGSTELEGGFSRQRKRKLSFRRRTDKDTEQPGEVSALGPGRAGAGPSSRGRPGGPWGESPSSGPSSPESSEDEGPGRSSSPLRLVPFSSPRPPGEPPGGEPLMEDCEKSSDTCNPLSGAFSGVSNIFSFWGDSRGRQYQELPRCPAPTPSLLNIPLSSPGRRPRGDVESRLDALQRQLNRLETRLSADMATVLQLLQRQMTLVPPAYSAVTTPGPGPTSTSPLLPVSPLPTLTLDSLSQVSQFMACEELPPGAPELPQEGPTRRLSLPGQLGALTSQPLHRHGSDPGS
row,SMILES,"hERG current change (%, negative = inhibition) at 10uM"
1,CCN(CC)CCC(=O)N1c2ccccc2CCc2ccc(NC(=O)OC)cc21.Cl,-8.57%
2,O=C(O)CCC(=O)Nc1ccc(-c2nc3ccc(C(=O)c4ccccc4)cc3[nH]2)cc1,20.2%
3,CCCCNc1c(-c2ccc(SC(C)CC)c(OC)c2)nc2ccc(C)cn12.O=C(O)C(F)(F)F (centres unmarked),-2.22%
4,CCC(C)(C)n1nnnc1CN1CCC(NC(=O)c2ccc(Br)cc2)CC1,-39.2%
5,CN=C1CN(O)C(c2ccccc2)=c2cc(Cl)ccc2=N1,18.6%
6,Cc1ccc(-n2nc(C)c(C(=O)O)n2)c(C)c1,-4.08%
7,CC(C)CN1C(=O)c2ccc(NC(=O)C3CC3)cc2C1=O,5.04%
8,CCCCNS(=O)(=O)c1ccc2nc(SCC(=O)Nc3cc(C)cc(C)c3)[nH]c2c1,10.4%
9,CC(C(=O)N1CCc2ccccc21)N(C)CC(=O)Nc1ccccc1Cl (centres unmarked),-29.2%
10,CCCN1C(=O)SC(CC(=O)Nc2cccc3ccccc23)C1=O (centres unmarked),10.8%
11,O=C(CCOc1ccccc1)Nc1cccc([N+](=O)[O-])c1,-19.8%
12,CN(c1ccccc1)S(=O)(=O)c1cccc(NC(=O)c2ccc(=O)[nH]c2)c1,-11.7%
13,COc1ccc(CNC(=O)c2ccccc2SCC(=O)NCc2ccco2)cc1,-31.3%
14,CC(=O)c1cccc(N(CC(=O)NC2CCCC2)C(=O)c2csnn2)c1,15.7%
15,Cc1c(C(=O)NC(C)C)sc2ncn(CC(=O)N3CCC(C)CC3)c(=O)c12,3.27%
16,CCOc1cc(/C=N/NC(=O)c2ccc(=O)n(C)c2)ccc1O,1.61%
17,CCN1CCN(Cc2c(O)ccc3c2O/C(=C\c2ccccc2)C3=O)CC1,-3.69%
18,O=C(CN1C(=O)NC2(CCCCC2)C1=O)N1CCN(c2ncccn2)CC1,0.553%
19,CCOC(=O)c1c(-c2ccccc2)oc2ccc(OCC(O)CN(C)C)cc12 (centres unmarked),-33.8%
20,O=C(Nc1ccccc1)OCc1cncs1,25.5%
21,COc1ccc(O)c(CN2CCCC(N3CCN(c4ccc(F)cc4)CC3)C2)c1 (centres unmarked),-59.7%
22,Cc1ccc(-c2ccc(SCC(=O)NCC3CCCO3)nn2)cc1 (centres unmarked),-5.69%

row,SMILES,"hERG current change (%, negative = inhibition) at 10uM"
1,COc1ccc2c(C)cc(SCC(=O)c3ccc4c(c3)OCO4)nc2c1,1.07%
2,O=C(CN1C(=O)NC2(CCCC2)C1=O)N1CCc2ccccc2C1,20.5%
3,O=C(NC(=S)Nc1ccc(S(=O)(=O)Nc2nccs2)cc1)c1ccc(F)c(F)c1,2.19%
4,COC(=O)c1ccc(NC(=O)c2ccc3nsnc3c2)cc1,4.15%
5,CCOC(=O)C1C(=O)OC2(CCCC2)C1C(=O)OCC (centres unmarked),-7.15%
6,O=C(C1CCCN(S(=O)(=O)c2ccccc2[N+](=O)[O-])C1)N1CCCC1 (centres unmarked),-8.37%
7,Cc1ccc(C2CC2c2n[nH]c(=S)n2-c2cccc(C)c2)cc1 (centres unmarked),16.6%
8,CCOC(=O)c1ccc(-n2c(CCC(=O)O)ccc2-c2ccccc2)cc1,1.88%
9,Cc1cccn2cc(-c3ccc(S(=O)(=O)N4CCCCC4)cc3)nc12,-1.13%
10,Cc1ccc(S(=O)(=O)N(C(=O)c2ccncc2)c2ccc(OC(=O)c3ccncc3)cc2)c(C)c1,-0.914%
11,CC1(C)Cc2c(sc3nc(=S)[nH]c(N)c23)CO1,13.6%
12,CCN(CC)CCN1C(=O)c2ccccc2NC1c1ccccc1F (centres unmarked),-46.3%
13,CCOC(=O)Cc1csc(NC(=O)Cc2ccccc2[N+](=O)[O-])n1,7.19%
14,C=CCOC(=O)CN1C(=O)c2ccccc2C1=O,2.24%
15,CCOc1ncccc1C(=O)N1CCN(S(=O)(=O)c2ccc3ccccc3c2)CC1,-19.1%
16,CCOc1cc(/C=N/NC(=O)CSc2nncn2C)ccc1OCC(N)=O,12%
17,Cc1ccc(OCC(=O)NNC(=O)c2ccc(-n3cncn3)c([N+](=O)[O-])c2)cc1,-2.51%
18,O=C(O)CCC(=O)Nc1ccccc1N1CCOCC1,0.751%
19,CC(=O)N(C)c1cccc(-c2ccc3nnc(C)n3n2)c1,12.7%
20,O=C(Nc1ccc(Cl)cn1)Nc1ccccc1F,6.46%
21,Nc1c(-c2ccccc2)nnn1Cc1ccccc1,5.68%
22,CCCCn1c(N)c(N(CCOC)C(=O)c2cc(S(=O)(=O)N3CCOCC3)ccc2F)c(=O)[nH]c1=O,16.1%
